The supplement of paper PMC8007513
Where a name gives a salt, the structure may show the parent alone. ± gives the standard error. Out of some 1,300 compounds screened, about 75 (6%) showed an effect of 50% or more. Some of the results follow.

Test system: Trichoderma virens ATCC 9645
Assay: growth yield (OD600) relative to untreated control; higher = less growth inhibition
Details: compound concentration: 100 uM
Summary of the method: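 A biocide at 200 ng ml^−1 was co-applied to some wells, and library compounds were present in all test wells at 100 μM final. The wells held 100 μl of Trichoderma virens ATCC 9645 spores at 15,000 spores ml^−1 in potato dextrose broth, grown at 30 °C in 96-well plates, with OD600 read at 40 h and 72 h. Results are relative growth against the control without either agent, averaged across duplicate screens.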

SMILES	growth yield (40 h) [%]	growth yield (72 h) [%]
CN1[C@@H]2CC[C@H]1C[C@@H](OC(=O)c1c[nH]c3ccccc13)C2 [Tropisetron hydrochloride]	104 ± 10	104 ± 8.6
N#Cc1cc(NC(=O)C(=O)O)c(Cl)c(NC(=O)C(=O)O)c1 [Lodoxamide]	106 ± 5.2	99.4 ± 3.8
Cc1cccc(C)c1OCC(C)N (configuration not stated) [Mexiletine hydrochloride]	102 ± 1.8	101.9 ± 0.84
COc1ccc(/C=C/C(=O)Nc2ccccc2C(=O)O)cc1OC [Tranilast]	88.2 ± 1.1	97.7 ± 2.9
CCOC(=O)C1=C(COCCN)NC(C)=C(C(=O)OC)C1c1ccccc1Cl (configuration not stated) [Amlodipine]	105 ± 12	113 ± 11
Oc1c(Cl)cc(Cl)c(Cl)c1Cc1c(O)c(Cl)cc(Cl)c1Cl [Hexachlorophene]	25.3 ± 2.1	98.9 ± 5.8
Cc1c(N(C)C)c(=O)n(-c2ccccc2)n1C [Amidopyrine]	103 ± 2.7	102.6 ± 0.63
CCN(CC)CCNC(=O)c1cc(Cl)c(N)cc1OC [Metoclopramide monohydrochloride]	102 ± 0.95	103 ± 2.9
CC(C)(CO)C(O)C(=O)NCCCO (configuration not stated) [Panthenol (D)]	100 ± 4.5	98.1 ± 3
CN(C)C/C=C(/c1ccc(Br)cc1)c1cccnc1 [Zimelidine dihydrochloride monohydrate]	97.8 ± 1.9	101 ± 4.1
CCOc1ccc2ccccc2c1C(=O)N[C@@H]1C(=O)N2[C@@H]1SC(C)(C)[C@@H]2C(=O)O [Nafcillin sodium salt monohydrate]	90.4 ± 2.1	91.6 ± 1.6
Cn1cnc2c1c(=O)[nH]c(=O)n2C [Theobromine]	98 ± 3	94.08 ± 0.94
O=C(N[C@H](CO)[C@H](O)c1ccc([N+](=O)[O-])cc1)C(Cl)Cl [Chloramphenicol]	103 ± 1.3	99.11 ± 0.1
CCC[C@@H]1C[C@@H](C(=O)N[C@@H]([C@H]2O[C@H](SC)[C@H](O)[C@@H](O)[C@H]2O)[C@H](C)Cl)N(C)C1 [Clindamycin hydrochloride]	98.5 ± 4.5	100 ± 4.2
C=C1/C(=C\C=C2/CCC[C@]3(C)[C@@H]([C@H](C)CCCC(C)C)CC[C@@H]23)C[C@@H](O)C[C@@H]1O [Alfacalcidol]	103 ± 1.4	103 ± 2.3
Cc1ccc2c(c1)c1c3n2CCNC3CCC1 (configuration not stated) [Pirlindole mesylate]	101 ± 1.1	104 ± 2.5
CN(C)CCC=C1c2ccccc2COc2ccccc21 [Doxepin hydrochloride]	96.58 ± 0.95	96.7 ± 1.7
CC(C)[N+](C)(CCOC(=O)C1c2ccccc2Oc2ccccc21)C(C)C [Propantheline bromide]	99.9 ± 1.1	100 ± 0.63
Nc1ccccc1S(N)(=O)=O [2-Aminobenzenesulfonamide]	93.7 ± 1.6	94.39 ± 0.63
COc1ccccc1Oc1c(NS(=O)(=O)c2ccc(C(C)(C)C)cc2)nc(-c2ncccn2)nc1OCCO [Bosentan]	91.7 ± 5.9	89.7 ± 9.5
NS(=O)(=O)c1cc2c(cc1Cl)NC(C(Cl)Cl)NS2(=O)=O (configuration not stated) [Trichlormethiazide]	95.14 ± 0.79	94.1 ± 1.1

SMILES	growth yield (40 h) [%]	growth yield (72 h) [%]
CN[C@@H]1[C@H](O)[C@H](NC)[C@H]2O[C@@]3(O)C(=O)C[C@@H](C)O[C@H]3O[C@@H]2[C@H]1O [Spectinomycin dihydrochloride]	103 ± 1.8	100.8 ± 0.52
N[C@@H](C(=O)N[C@@H]1C(=O)N2C(C(=O)O)=C(Cl)CC[C@H]12)c1ccccc1 [Loracarbef]	97.21 ± 0.95	98.5 ± 1.6
Cc1onc(-c2ccccc2Cl)c1C(=O)N[C@@H]1C(=O)N2[C@@H]1SC(C)(C)[C@@H]2C(=O)O [Cloxacillin sodium salt]	101 ± 1.4	105 ± 2.8
C#Cc1cccc(Nc2ncnc3cc(OCCOC)c(OCCOC)cc23)c1 [Erlotinib]	108	105
CC(C)Nc1cccnc1N1CCN(C(=O)c2cc3cc(NS(C)(=O)=O)ccc3[nH]2)CC1 [Delavirdine]	100.4 ± 0.95	98.06 ± 0.94
CN[C@@H]1[C@@H](O[C@H]2O[C@H](CO)[C@@H](N)[C@H](O)[C@H]2O)OC2C[C@@H](N)[C@@H](O[C@H]3[C@H](O)[C@@H](O)[C@H](N)C[C@@H]3N)OC2[C@@H]1O (some centres not stated) [Apramycin]	103 ± 2.2	100.2 ± 0.52
Cc1c(-c2ccccc2)oc2c(C(=O)OCCN3CCCCC3)cccc2c1=O [Flavoxate hydrochloride]	103.7 ± 0.79	107 ± 1.1
C[C@H]1c2cccc(O)c2C(=O)C2=C(O)[C@]3(O)C(=O)C(C(N)=O)=C(O)[C@@H](N(C)C)[C@@H]3[C@@H](O)[C@@H]21 [Doxycycline hydrochloride]	93.2 ± 1.8	92.7 ± 2.7
Clc1ccc(C(Cn2ccnc2)OCc2ccsc2Cl)c(Cl)c1 (configuration not stated) [Tioconazole]	2.22 ± 1.6	1.89 ± 0.84
CCCC1C(=O)N2C(N(C)C)=Nc3ccc(C)cc3N2C1=O (configuration not stated) [Azapropazone]	91.5 ± 4.8	87.6 ± 4.5
c1cnc(N2CCN(Cc3ccc4c(c3)OCO4)CC2)nc1 [Piribedil hydrochloride]	109 ± 8.3	102 ± 4
C[C@](N)(Cc1ccc(O)c(O)c1)C(=O)O [Methyldopa (L,-)]	101 ± 1.1	101 ± 1.5
CCOC(=O)O[C@]1(C(=O)OCCl)CC[C@H]2[C@@H]3CCC4=CC(=O)C=C[C@]4(C)[C@H]3[C@@H](O)C[C@@]21C [Loteprednol etabonate]	97.7 ± 3.6	97.4 ± 3.5
Cc1ccc(NC(=O)c2ccc(CN3CCN(C)CC3)cc2)cc1Nc1nccc(-c2cccnc2)n1 [Imatinib]	117 ± 7	109 ± 7.5
O=C(O)c1cn(C2CC2)c2cc(N3CCNCC3)c(F)cc2c1=O [Ciprofloxacin hydrochloride monohydrate]	94.19 ± 0.48	92.4 ± 0.32
CCOc1nc2cccc(C(=O)OCc3oc(=O)oc3C)c2n1Cc1ccc(-c2ccccc2-c2noc(=O)[nH]2)cc1 [Azilsartan kamedoxomil]	101 ± 3.5	99.7 ± 3.7
C#CCN[C@@H]1CCc2ccccc21 [Rasagiline]	90.06 ± 0.48	91.03 ± 0.42
COc1ccc(-c2cc(=S)ss2)cc1 [Anethole-trithione]	76.4 ± 9.1	77.5 ± 7.2
COc1cc(C(=O)NCc2ccc(OCCN(C)C)cc2)cc(OC)c1OC [Trimethobenzamide hydrochloride]	103 ± 2.4	97.75 ± 0.21
CCCN1CCCC[C@H]1C(=O)Nc1c(C)cccc1C [Ropivacaine hydrochloride]	107 ± 3.6	106 ± 1.9
